# About 230 (0.21%) of roughly 110,000 compounds showed an effect of 50% or more. This is one part of the list.
# Target: DPAP1 (Plasmodium falciparum, UniProt Q8IIJ9)
# Experiment: primary screen, percent inhibition; read by cleavage of a fluorogenic dipeptide substrate; higher = more effect of the substance
# Set-up: species or system P. falciparum D10 trophozoite lysates; single well
# 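Also: 30 min substrate incubation versus DMSO and 10 µM JCP410 controls.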
# DPAP1, sequence (Q8IIJ9 whole entry, looked up): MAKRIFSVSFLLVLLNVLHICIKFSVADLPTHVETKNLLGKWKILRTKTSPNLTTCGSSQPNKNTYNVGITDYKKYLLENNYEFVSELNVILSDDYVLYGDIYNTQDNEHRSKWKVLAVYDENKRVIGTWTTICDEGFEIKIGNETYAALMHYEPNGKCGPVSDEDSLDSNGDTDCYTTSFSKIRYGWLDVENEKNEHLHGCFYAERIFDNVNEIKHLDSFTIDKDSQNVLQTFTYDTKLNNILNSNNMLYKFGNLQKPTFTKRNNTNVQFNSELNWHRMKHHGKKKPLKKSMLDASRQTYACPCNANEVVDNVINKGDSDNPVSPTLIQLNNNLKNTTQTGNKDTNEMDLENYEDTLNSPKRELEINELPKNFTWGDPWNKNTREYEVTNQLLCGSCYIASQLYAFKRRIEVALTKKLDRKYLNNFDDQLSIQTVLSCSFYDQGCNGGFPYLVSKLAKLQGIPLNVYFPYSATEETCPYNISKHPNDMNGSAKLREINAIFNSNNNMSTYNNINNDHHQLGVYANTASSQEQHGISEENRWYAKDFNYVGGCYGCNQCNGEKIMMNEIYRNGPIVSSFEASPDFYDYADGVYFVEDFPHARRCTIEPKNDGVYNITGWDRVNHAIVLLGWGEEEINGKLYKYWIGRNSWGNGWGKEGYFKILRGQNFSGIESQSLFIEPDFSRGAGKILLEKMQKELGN
row,Structure (SMILES),% Inhibition @ 10 uM
1,O=C(Nc1ccc2c(c1)OCO2)c1cccc(Cl)c1,1.84%
2,N#Cc1c(NC(=O)c2cc(-c3ccco3)on2)sc2c1CCCC2,-5.09%
3,CCOC(=O)c1nnn(-c2nonc2N)c1-c1cccc2ccccc12,-0.0735%
4,CCN(C(=O)c1ccc([N+](=O)[O-])cc1)c1ccccc1C,-4.4%
5,CN(c1ccccc1C(=O)NCCc1ccccc1)S(C)(=O)=O,3.8%
6,CCOCCCn1c(SCC(N)=O)nc2c(oc3ccccc32)c1=O,-1.36%
7,Cc1ccc(C2=NS(=O)(=O)N(C)C(C(=O)NCc3ccccc3)=C2)cc1,-2.84%
8,CC(C)Oc1ccc(CNC(=O)Nc2cccs2)cc1,2.25%
9,CC1=C(C#N)C(=O)NC(=O)/C1=C\c1ccc(-c2cccc(C(=O)OC(C)C)c2)o1,0.487%
10,COc1cccc(CN2CCN(c3ccccn3)CC2)c1,1.63%
11,CCOC(=O)c1cnc(N2CCCCC2)nc1C1CCN(C(=O)OC(C)(C)C)CC1,-1.03%
12,CCC1CCCCN1C(=O)CCN1C(=O)c2ccccc2C1=O (stereo not shown),-4.33%
13,Nc1ccc2c(c1)C(=O)N(c1cccc(F)c1)C2=O,5.52%
14,CC1(C)CC2=Nc3nc(-c4ccccc4)nn3C(c3cccnc3)C2=C(O)C1 (stereo not shown),3.05%
15,CCCC/N=C1\CC(C)(C)CC(O)=C1C(=O)CCC,1.82%
16,Cc1ccc(-c2cn3nc(N4CCC(C(=O)NCCCc5ccccc5)CC4)sc3n2)cc1,-0.35%
17,Cc1ccc2c(c1)cc1c(=O)n(CC(=O)NCc3ccccn3)nc(C)n12,4.84%
18,Cc1ccccc1OC(C)C(=O)NC1CCCCC1 (stereo not shown),-2.76%
19,O=C(CC1C(=O)Nc2ccccc21)c1ccccn1 (stereo not shown),0.161%
20,COc1ccc(N(CC(=O)Nc2ccc(C(C)C)cc2)S(C)(=O)=O)c(OC)c1,-0.116%
21,CC1(C)CC(=O)c2c(nn(-c3ccccc3)c2-c2ccccn2)C1,1.27%
22,COCc1cc(O)nc(SCC(=O)Nc2cc(C)cc(C)c2)n1,0.777%
23,Cc1ccccc1C(=O)Nc1c(C)nc(O)nc1O,-3.13%
24,CCc1sc(NC(=O)C2CCCCC2C(=O)O)nc1-c1ccccc1 (stereo not shown),-1.28%
25,Cn1c(=N)n(CC(=O)c2ccc(-c3ccccc3)cc2)c2ccccc21,10.6%
26,CCOc1ccc2nc(N3CCC(C(=O)NCCOC)CC3)sc2c1,3.4%

row,Structure (SMILES),% Inhibition @ 10 uM
1,CSc1nc2c(c(=O)n1C1CCCC1)C1(CCCC1)Cc1ccccc1-2,-0.436%
2,C=CCc1ccccc1OCC(=O)O,3.25%
3,CC(C)NC(=O)c1ccccc1Br,-3.49%
4,CC1CN(c2nc3ccccc3nc2SCC(=O)NC2CCCCCCC2)CC(C)O1 (stereo not shown),3.36%
5,N#CCNC(=O)[C@H](Cc1cc(Cl)c(O)c(Cl)c1)NC(=O)C(c1ccccc1)c1ccccc1,20.1%
6,Cc1ccc(SC(C)C(=O)NC(C)(C)C)cc1 (stereo not shown),3.62%
7,COc1ccc(Br)cc1C=C1C(=O)NC(=S)NC1=O,2.13%
8,COc1ccc(C(CC(=O)Nc2nc(C)cs2)N2Cc3ccccc3C2=O)cc1 (stereo not shown),-2.94%
9,O=C(c1cc(-c2ccccc2O)on1)N1CCOCC1,-4.43%
10,Cc1ccc2nc(Nc3nc(O)c4c(n3)CCC4)nc(C)c2c1,-2.32%
11,O=C1c2ccccc2C(=O)N1CC1c2ccccc2CCN1C(=O)c1cccc(C(F)(F)F)c1 (stereo not shown),-0.458%
12,Cn1c(=O)c2c(nc(NCC(=O)O)n2CCc2ccccc2)n(C)c1=O,-4.65%
13,COCCCn1c(=O)c(C#N)cc2c(=O)n3cccc(C)c3nc21,2.73%
14,CC(=O)c1cccc(NC(=O)CN(C)S(=O)(=O)c2c(C)cc(C)cc2C)c1,-1.82%
15,CCC(CC)N1CCN(C(=O)c2cc(OC)c(OC)c(OC)c2)CC1,7.02%
16,CC1(C)CC(=O)c2cc(OCC(=O)N3CCN(Cc4ccccc4)CC3)ccc2O1,-4.97%
17,Cc1ccc(N2C(=O)NC(=O)/C(=C/NCCCO)C2=O)cc1C,2.69%
18,Cc1ccc(NC2=NC(=O)/C(=C\c3ccco3)S2)cc1,-1.06%
19,CCCCNC(=O)CNC(=S)N(Cc1ccccc1)Cc1cccs1,4.47%
20,O=C(CN(c1ccccc1Cl)S(=O)(=O)c1ccccc1)NCc1cccnc1,1.02%
21,Cc1ccc(/C=C2\C(=O)NC(=S)N(c3ccc(Cl)cc3)C2=O)o1,1.72%
22,O=C(COc1ccccc1)N1CCN(Cc2cccc(Cl)c2)CC1,-1.1%
23,CC(C)c1ccc(O)c(C(=O)c2cnn(-c3ccccc3)c2)c1,-8.86%
24,O=C(O)C(O)C12CC3CC(CC(Br)(C3)C1)C2 (stereo not shown),-0.712%
25,CCc1ccc(S(=O)(=O)c2nnn3c2nc(NCc2ccccc2)c2ccccc23)cc1,-4.85%
26,O=C(c1ccco1)N(Cc1ccccc1)c1ccccn1,-3.12%

row,Structure (SMILES),% Inhibition @ 10 uM
1,COc1ccc2oc(=O)c(-c3nc(-c4ccc5c(c4)OCO5)no3)cc2c1,-3.43%
2,COc1ccc(CCNC(=O)C2c3ccccc3Oc3ccccc32)cc1OC,-6.7%
3,COc1ccc(NC(=O)CN(c2ccc(OC)c(OC)c2)S(C)(=O)=O)cc1Cl,-2.74%
4,Cc1cc(C(c2ccccc2)c2cc(C)c(N)c(C)c2)cc(C)c1N,1.35%
5,COc1cccc(C2C(C#N)=C(N)Oc3c2c(C)nn3-c2ccc(C)cc2)c1 (stereo not shown),-0.941%
6,CC(C)N(C(=O)c1ccc(C(=O)O)cc1)C(C)C,-6.07%
7,CCOC(=O)c1sc(NC(=O)CSc2nc(SC)ns2)nc1C,1.91%
8,CCOC(=O)C1=C(C)NC(=O)NC1c1cccc(OCC)c1O (stereo not shown),-0.85%
9,CCN1CCN(C(=O)CCCn2nc(C)c3c(C)n(-c4ccc(C)cc4)nc3c2=O)CC1,-6.53%
10,N=C(NOC(=O)C1CCCCC1)c1ccc(Br)cc1,3.66%
11,COCCCNc1cc(C)nc2ccc(C)cc12,-1.26%
12,CSC1=NSC2=NC(=O)/C(=C\c3cc(Cl)c(O)c(Cl)c3)C(=N)N12,-1.58%
13,CCOC(=O)c1c(C)c(C(=O)NCC(C)C)c(C)n1Cc1ccccc1,0.0579%
14,CCOc1cc2c(cc1OCC)C(c1cc(OC)c(OC)c(OC)c1)NCC2 (stereo not shown),-6.43%
15,Oc1nc(O)c2c(n1)CCN(Cc1ccc(F)cc1)C2,3.61%
16,Cc1ccccc1COC(=O)c1ccc(-n2cccn2)cc1,4.58%
17,COc1ccc(Cn2ccc3nc(C)c(C(=O)NCC4CCCO4)cc3c2=O)cc1 (stereo not shown),-4.75%
18,Cn1c(=O)[nH]c(=O)c2c1nc(N1CCCCCC1)n2CCc1ccccc1,-13.3%
19,CC(=O)N1CCN(C2CCCC(C)C2)CC1 (stereo not shown),-4.01%
20,O=c1cc2nc(-c3ccco3)nc(SCCOc3ccccc3Cl)n2[nH]1,4.32%
21,CC(C)c1ccc(-c2c(N(C)Cc3ccco3)c(=O)c2=O)cc1,4.1%
22,COc1cc(C=O)ccc1OCc1ccncc1,1.58%
23,O=C(NCc1nc2ccccc2[nH]1)c1nc(-c2ccc3c(c2)OCO3)no1,4.57%
24,O=C(NCC1CCCO1)c1nc(-c2ccc(C(F)(F)F)cc2)no1 (stereo not shown),-2.28%
25,CN1C(=O)N(C)C2(O)c3ccccc3C(=O)C12O (stereo not shown),-1.42%
26,COc1cc(OC)nc(NC(=O)CSc2nc3ccccc3o2)n1,-3.49%

row,Structure (SMILES),% Inhibition @ 10 uM
1,O=c1/c(=C/c2cccs2)sc2nnc(-c3ccccc3Cl)n12,-5.01%
2,Cc1ccc(CSc2nc3ccccc3[nH]2)cc1,11.4%
3,COc1cccc(OCC(O)CN(CCO)Cc2ccccc2)c1 (stereo not shown),3.06%
4,Cc1[nH]c(-c2ccc(F)cc2)cc1C(=O)N1CC=C(c2ccccc2)CC1,6.06%
5,C=CCOc1nc(-c2ccccc2)cc(-c2ccc(OC)cc2)n1,5.04%
6,CC(C)Oc1ccc(CNC(=O)CCC(=O)N2Cc3ccccc3Oc3ncccc32)cc1,0.627%
7,C=CCNc1ncnc2c1c(-c1ccccc1)cn2-c1ccc(OC)cc1,2.56%
8,O=C(NC1CC1)c1cc(Sc2ccc(F)cc2F)nc2ccccc12,-6.75%
9,Nc1cc(O)nc2ncnn12,3.38%
10,Cc1cc(C)n(CCc2nc3c4ccccc4nc(N4CCN(C5CCCCC5)CC4)n3n2)n1,-4.21%
11,CCN1CCN(C(c2ccccn2)c2c(NC(=O)c3ccccc3)sc(C)c2C)CC1 (stereo not shown),-1.61%
12,CC(C)(C)c1ccc(CNC(=O)c2ccccc2Br)cc1,0.0719%
13,CN(C)CCCNc1ncnc2sc3c(c12)CCCC3,6.54%
14,N#CCNC(=O)[C@H](Cc1cc(Cl)c(O)c(Cl)c1)NC(=O)c1ccc(F)c(F)c1,6.03%
15,COc1ccc(N2C(=O)C(Cl)=C(Nc3ccccc3OC)C2=O)cc1,1.03%
16,COc1cc(OC)cc(C(=O)Nc2nc(-c3nnn(-c4cc(OC)cc(OC)c4)c3C)ns2)c1,2.12%
17,O=C(CSc1nnnn1-c1ccccc1)c1ccc(O)cc1,1.27%
18,CCN(CC)c1ccc(NC(=O)C2CCCCC2C(=O)O)cc1 (stereo not shown),1.43%
19,COCCNC(=O)Cn1ncc2ccsc2c1=O,-2.92%
20,O=C(COc1ccc(Cl)cc1)Nc1ccc(S(=O)(=O)N2CCCC2)cc1,3.8%
21,CC(=O)OC1CSCC1NC(=O)c1ccccc1 (stereo not shown),-3.52%
22,COC(=O)c1nnn(-c2cc(Cl)ccc2OC)c1C(=O)OC,0.163%
23,COc1ccc(C(=O)Nc2sc(C)cc2C(=O)O)cc1,-0.865%
24,Cc1[nH]c2ccccc2c1C(=O)CN1CCN(Cc2ccc3c(c2)OCO3)CC1,-5.4%
25,C=C(C)[C@@H]1CC=C(CNc2cc(OC)cc(OC)c2)CC1,6.54%

# — paper PMC6919601, “Identification of Plasmodium dipeptidyl aminopeptidase allosteric inhibitors by high throughput screening” (PLoS ONE, 2019)
